Assay results as given in the supplement of paper PMC10986608.
This is one part of the list. Many values rest on one well or one pass, so single values are uncertain.

Tested on: Candida albicans DPL-15
Experiment: growth (OD600) after compound treatment (apparently relative to screen median) (relative growth (fraction; screen median 1.02)); DPL-15 is a caspofungin-resistant clinical isolate; higher = more fungal growth (less antifungal activity)
Conditions: 25 µM; RPMI 1640; 48 h; 30 °C

| SMILES | growth |
| --- | --- |
| CC#CCN1C(=O)N(C)C(c2ccccc2)C(C(=O)OC)=C1C (stereo unspecified) | 1.2 |
| C=CCN1C(=O)C2=C(C(C)=NCCN2C)C1c1cccc(C(F)(F)F)c1 (stereo unspecified) | 0.944 |
| CCOC(=O)Cn1nnc(-c2ccc(C=O)cc2)n1 | 0.988 |
| CC#C/C(O)=C(/C(=O)OC)c1cc(OC)cc(OC)c1 | 0.935 |
| Cc1ccc(Cl)cc1NS(=O)(=O)c1c(C(=O)N2CCCC2)c(C)n(C)c1C | 0.905 |
| CC(=O)C1=C(C)N(Cc2ccccc2)C(=S)NC1c1ccc(F)cc1 (stereo unspecified) | 0.915 |
| O=S(=O)(c1ccc(C(F)(F)F)cc1)N1CCCc2nc(-c3ccccc3)ccc21 | 0.935 |
| COC(=O)c1cc2nc(/N=C(\C)N(C)C)nc(O)c2nc1C(=O)OC | 1.22 |
| O=C(/C=C/c1ccccc1)Nc1ccc2c(=O)c(Cc3cc4ccccc4s3)coc2c1 | 1.14 |
| COc1ccc([C@@]23Oc4cc(OC)cc(OC)c4[C@]2(O)[C@H](O)[C@H](C(=O)c2ccccc2)[C@H]3c2ccccc2)cc1 | 1 |
| COC(=O)[C@H]1[C@@H](O)[C@@]2(O)c3c(OC)cc(OC)cc3O[C@@]2(c2ccc(OC)cc2)[C@@H]1/C=C/c1ccccc1 | 0.987 |
| COc1ccc([C@@]23Oc4cc(OC)cc(OC)c4[C@]2(O)[C@H](O)[C@H](C(=O)N(C)C)[C@H]3c2cccc(F)c2)cc1 | 1.44 |
| Cc1ccc(C2NC(=O)c3nn(-c4ccc(F)cc4)c(-c4ccccc4)c32)cc1 (stereo unspecified) | 0.945 |
| COc1ccc(Cn2c(-c3ccc(OC)cc3)c(O)c(=O)c3ccccc32)cc1 | 0.99 |
| COc1ccc(Cn2nc(C3CC3)cc2Nc2cc(O)cc(O)c2C(=O)N2Cc3cccnc3C2)cc1 | 1.04 |
| CN1CCN=C(c2ccccc2)C2=C1C(=O)N(Cc1ccccc1)C2c1ccc2c(c1)OCO2 (stereo unspecified) | 0.999 |
| COc1ccc(N2C(=O)C3=C(C(C(C)C)=NCCN3)C2c2ccccc2)cc1 (stereo unspecified) | 0.991 |
| CC(C)CCc1cc(OCc2nn[nH]n2)cc2oc3ccccc3c(=O)c12 | 1.03 |
| C#CCN1C(=O)N(C(C)=O)C(c2ccccc2)C(C(C)=O)=C1C (stereo unspecified) | 0.987 |
| COC(=O)c1nnc(C(=O)OC)c2c1[nH]c1ccc(OC)cc12 | 1.07 |
| CC(C)(C)c1ccc(C#C[C@@H]2C=C[C@H](O)[C@@H](CO)O2)cc1 | 1.05 |

| SMILES | growth |
| --- | --- |
| CC(=O)C1=C(C)NC(=O)N(C(C)=O)C1c1ccccc1 (stereo unspecified) | 0.83 |
| C=C(C)CC1=C(OS(=O)(=O)c2ccc(C)cc2)CCC1=O | 1.11 |
| COC(=O)[C@H]1[C@@H](O)[C@@]2(O)c3c(OC)cc(OC)cc3O[C@@]2(c2ccc(OC)cc2)[C@@H]1c1cccc(C#N)c1 | 1.02 |
| Cc1cc(O)c2c(c1)OC1(C(=O)C=CC(O)=C1C(=O)O)C2=O (stereo unspecified) | 1.11 |
| COc1ccc(C(=O)COC(=O)c2c(N)cc(F)cc2F)cc1 | 1.02 |
| CC(C)c1ccc2c(c1)C1(Cc3occc(=O)c3OS(C)(=O)=O)CCCCC1=N2 (stereo unspecified) | 1.11 |
| COc1ccc(N2C(=O)C3=C(C(C)=NCCN3)C2c2ccc(F)cc2)cc1 (stereo unspecified) | 1.04 |
| CN(Cc1ccccc1)C[C@@H]1CCCN(Cc2ccccc2)C1 | 1.09 |
| C=CCC1CC2=C(OC1(C)C)C(C(=O)c1ccccc1)=C(O)C(CC=C)(CC=C)C2=O (stereo unspecified) | 1.05 |
| COc1ccc(N2C(=O)c3[nH]nc(CC(C)C)c3C2C2CCCCC2)cc1 (stereo unspecified) | 1.02 |
| Cc1cc2c(nc1C)CCCN2S(=O)(=O)c1ccccc1 | 0.891 |
| CC(=O)OC[C@H]1O[C@H](c2ccc(Cl)cc2)C=C[C@H]1OC(C)=O | 0.934 |
| COc1ccc(N2C(=O)c3[nH]nc(CC(C)C)c3C2c2ccncn2)cc1 (stereo unspecified) | 1.19 |
| CC(C)c1cc(Nc2cc(O)cc(O)c2C(=O)N2Cc3cccnc3C2)n(C)n1 | 1.39 |
| COC(=O)[C@@]12Oc3ccc(-c4ccc5occc(=O)c5c4)c(O)c3C(=O)C1=C(N)C[C@H](C)[C@@H]2O | 1.13 |
| CC(C)(C)NS(=O)(=O)NCC(F)(F)F | 1.26 |
| C=C(C)[C@@H]1CC[C@]2(COC(C)=O)CC[C@]3(C)[C@H](CC[C@@H]4[C@@]5(C)CC/C(=N/O)C(C)(C)[C@@H]5CC[C@]43C)[C@@H]12 | 1.48 |
| CC(C)(C)[Si](C)(C)OCC1=C(Br)C2(OCCCO2)[C@@H]2O[C@]2(CO)[C@@H]1O | 0.918 |
| COC(=O)C1=C(C)N(Cc2cccc(C(F)(F)F)c2)C(NCCCOC(C)C)=NC1c1ccc(Cl)cc1 (stereo unspecified) | 0.658 |
| Cc1noc(C)c1S(=O)(=O)N1CCCc2nc(-c3ccccc3)ccc21 | 0.888 |
| CC(C)C1=NCC(C)(C)NC2=C1C(c1cccc(C(F)(F)F)c1)N(Cc1ccccc1)C2=O (stereo unspecified) | 1.05 |

| SMILES | growth |
| --- | --- |
| O[C@@H]1C2(O)c3ccccc3O[C@]1(c1ccccc1)[C@@H](/C=C/c1ccccc1)[C@@H]2c1ccccc1 | 0.929 |
| COc1cc2c(cc1OC)[C@@]1(c3ccccc3)CCCC[C@H]1[C@@H]2NC(=O)C(F)(F)F | 1.05 |
| COC(=O)C/C=C/[C@@H](C)[C@H](O)c1ccccc1Br | 0.973 |
| CCc1cc2c(nc1CC)CCCN2S(=O)(=O)c1ccc(C)cc1 | 0.876 |
| Cc1ccc(S(=O)(=O)Oc2c(CC34CCCCC3=Nc3ccccc34)occc2=O)cc1 (stereo unspecified) | 1.17 |
| CC(=O)C1=C(C)NC(=O)NC1c1ccc(C)cc1 (stereo unspecified) | 1.19 |
| O=C1N[C@H](c2ccccc2)COCc2cc([nH]n2)-c2cccc(n2)C(=O)N2C[C@H](O)C[C@@H]12 | 1.07 |
| C=CC[C@]12C[C@@]3(O[C@H](C4CCNCC4)N=C3C[C@H](c3ccc(OC)cc3)[C@H]1C)N(Cc1ccncc1)C2=O | 0.884 |
| COc1cc2c(cc1OC)[C@@]1(C)C=CC(=O)N1CC2 | 0.975 |
| CC(C)C1=C[C@H]2[C@H]3C(=O)C(c4ccc(O)cc4)=C[C@@]3(c3ccc(O)cc3)[C@@H]1C(=O)[C@]2(C)O | 0.984 |
| CC(C)Cc1n[nH]c2c1C(c1ccc(F)cc1)N(c1cccnc1)C2=O (stereo unspecified) | 1.14 |
| COC(=O)C1=C(C)N(Cc2ccccc2F)C(=S)NC1c1cccc(Br)c1 (stereo unspecified) | 0.965 |
| COc1cc(O)ccc1C(=O)/C=C/c1ccc(O)cc1 | 1.23 |
| CCc1cc2c(nc1CC)CCCN2S(=O)(=O)c1ccc(C#N)cc1 | 0.951 |
| COCCN1C(=O)N[C@H](c2cccc(C(F)(F)F)c2)C(C(=O)OC)=C1C | 0.927 |
| COc1ccc(-c2cnn3c(N)c(-c4ccc(Cl)cc4)cnc23)cc1 | 1.2 |
| CC#CCOc1coc2ccccc2c1=O | 1.07 |
| COc1cccc2c(=O)c3cccc(C(=O)Nc4ccc(CCN5CCc6ccccc6C5)cc4)c3[nH]c12 | 1.25 |
| COc1cc([C@@H]2[C@@H](C(=O)NCc3ccccc3)[C@@H](C(=O)NCc3ccccc3)[C@@H]2c2cc(OC)c(OC)c(OC)c2)cc(OC)c1OC | 1.04 |
| COC(=O)C/C=C/[C@H](C)[C@@H](NC(=O)[C@@H]1CCCN1C(=O)OC(C)(C)C)c1ccccc1 | 1.02 |
| COc1ccc([C@@]23Oc4cc(OC)cc(OC)c4[C@]2(O)[C@H](O)[C@H](C(=O)c2cc(C)c(C)o2)[C@H]3c2ccccc2)cc1 | 1.2 |

| SMILES | growth |
| --- | --- |
| COc1ccc(OC[C@H]2C=C(C)C[C@@]3(O2)C(=O)Nc2ccccc23)cc1 | 0.91 |
| COc1ccc2c(c1)[C@@H](NS(=O)(=O)c1c(C(C)C)cc(C(C)C)cc1C(C)C)[C@H](C)[C@H]2c1ccccc1 | 1.21 |
| C=CCOC(=O)C1(C(NC(=O)OC)c2ccccc2)C(=O)Cc2ccccc21 (stereo unspecified) | 0.977 |
| COc1ccc(-c2cnc3c(-c4ccc(F)cc4)cnn3c2)cc1 | 1.05 |
| CCCCCOS(=O)(=O)NCC | 1.18 |
| COC(=O)C1=C(C(=O)OC)C2N(Cc3ccccc3)c3ccccc3C23CCNC3=N1 (stereo unspecified) | 0.939 |
| COc1ccc2c(c1)[C@@H](NS(=O)(=O)c1ccc(C(F)(F)F)cc1)[C@H](C)[C@H]2c1ccccc1 | 1.09 |
| COc1ccc2c(c1)[C@H](c1ccccc1)[C@@H]1Cc3ccccc3[C@@H]1O2 | 0.92 |
| CC(C)Cc1n[nH]c2c1C(c1ccc(F)cc1)NC2=O (stereo unspecified) | 1.09 |
| COC(=O)C1=C(C)N(Cc2ccc(Cl)cc2)C(=S)NC1c1ccc(Cl)cc1 (stereo unspecified) | 0.912 |
| CC(=O)C1=C(C)N(Cc2ccc(Cl)cc2)C(=S)NC1c1cccc(Br)c1 (stereo unspecified) | 0.939 |
| Cc1ccc(C2C3=C(NCCN=C3c3ccccc3)C(=O)N2Cc2ccccc2)cc1 (stereo unspecified) | 1.04 |
| COC(=O)C1=C(C)N(Cc2ccccc2)C(=O)NC1c1ccccc1 (stereo unspecified) | 1.11 |
| COc1ccc(Cn2nc(C(C)C)cc2Nc2cc(O)cc(O)c2C(=O)N2Cc3cccnc3C2)cc1 | 1.12 |
| [N-]=[N+]=NC1c2ccccc2-c2c1c1c3c(ccc4c3c2OCO4)OCO1 (stereo unspecified) | 0.957 |
| CC1=C[C@]23O[C@H]2[C@H](O)C[C@@H](C)[C@]3(O)[C@@H]2CCC3(OCCO3)[C@@]2(O[Si](C)(C)C)C1 | 1.07 |
| Cc1ccc2c(c1)C1(Cc3occc(=O)c3OS(C)(=O)=O)CCCCC1=N2 (stereo unspecified) | 1.18 |
| CCCC[C@]12Cc3cc(OC)c(OC)cc3[C@H](O1)c1c(c3ccccc3n(C)c1=O)O2 | 0.886 |
